Several values for one entry are separate records, joined by “and”; a condition that tells them apart may be missing. Identical values can stand only once. Hit rate of the full screen: of about 150,000 compounds, about 6,500 (4.3%) were called active. The shares of active, inactive and inconclusive entries below differ from those in the screen. Calls follow the shape of the dose curve; as a rule, active = well fitted inhibition curve with a large enough effect (not every such curve was filed as active); inconclusive = small, poorly fitted or top-dose-only effect, or another doubt; inactive = no such curve, though single readings can be large or run the other way. Where the call is inconclusive, the potency comes from a doubtful curve fit.
Each compound was assayed against 15-hydroxyprostaglandin dehydrogenase [NAD(+)] (Homo sapiens) (UniProt P15428) (assay: qHTS Assay for Inhibitors of HPGD (15-Hydroxyprostaglandin Dehydrogenase)). Conditions: purified HPGD, NADH fluorescence kinetic, PGE2 substrate; activity change, negative = inhibition: stronger effect = lower value.
Procedure, shortened: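 20 nM HPGD preincubated 15 min at room temperature with compound in 50 mM Tris-HCl pH 8, 0.01% Tween 20. Started with 1 mM NAD+ and 30 uM prostaglandin E2; NADH fluorescence (360/450 nm) read 5 times over 30-s intervals, last minus first.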
% is scaled to controls: 0 for no effect and ±100 for the full control effect; potency is read from the fitted curve at half-maximal effect; tags tell the direction and shape of the fitted curve.

UniProt P15428, sequence (P15428 whole entry, looked up): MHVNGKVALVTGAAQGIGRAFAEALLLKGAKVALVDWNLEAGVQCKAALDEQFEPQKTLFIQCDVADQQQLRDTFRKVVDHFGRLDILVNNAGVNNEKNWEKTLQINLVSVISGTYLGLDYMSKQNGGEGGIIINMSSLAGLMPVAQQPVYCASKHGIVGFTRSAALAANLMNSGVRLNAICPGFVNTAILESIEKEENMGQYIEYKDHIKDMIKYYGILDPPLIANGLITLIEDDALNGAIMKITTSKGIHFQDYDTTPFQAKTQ

SMILES | Potency | activity change, negative = inhibition
CCCOC(=O)c1c(N)n(Cc2cccs2)c2nc3ccccc3nc12 | inconclusive: 28.2 µM [inhibitor, partial curve] | 
CCOc1ccc(/C=C2/C(=O)NC(=O)N(CCc3ccc(F)cc3)C2=O)cc1 | active: 10 µM | 
COC(=O)C(O)(c1ccc(NC(=S)NC(=O)c2ccc(Cl)cc2Cl)c(C)c1)C(F)(F)F (stereo not given) | inconclusive: 22.4 µM [inhibitor, partial curve] | 
Cc1ccc2oc(-c3ccccc3)cc(=O)c2c1 | inconclusive: 39.8 µM [inhibitor, partial curve] | 
C/C=C(/C)C(=O)O[C@H]1C(C)=C2C([C@@H]1OC(=O)CCCCCCC)[C@@](C)(OC(C)=O)C[C@@H](OC(=O)CCC)[C@@]1(O)[C@H]2OC(=O)[C@@]1(C)O (stereo not given in full) | inconclusive: 22.4 µM [inhibitor, partial curve] | 
CCCCOCCCn1c(N)c(C(=O)OCCOC)c2nc3ccccc3nc21 | inconclusive: 1.58 µM [inhibitor, full curve] | 
CCCCC/C=C\C/C=C\C/C=C\C/C=C\CCCC(=O)NCc1ccc(O)c(OC)c1 | active: 31.6 µM | 
C[C@H]1CC[C@@H]2[C@@H](C)[C@H]3[C@H](C[C@H]4[C@@H]5CC=C6CC(O[C@@H]7O[C@H](CO)[C@H](O)[C@H](O[C@@H]8O[C@H](CO)[C@@H](O)[C@H](O)[C@H]8O)[C@H]7O[C@H]7O[C@@H](C)[C@H](O)[C@@H](O)[C@H]7O)CC[C@]6(C)[C@H]5CC[C@]34C)N2C1 (stereo not given in full) |  | inactive: -4.24%
COP(=S)(OC)SCn1nnc2ccccc2c1=O | active: 10 µM and active: 28.2 µM | 
COc1ccc2c(c1)C13CCCCC1C(C2)N(C)CC3 (stereo not given) |  | inactive: -21.4%
O=C(O)CCn1cc(C=C2C(=O)NC(=O)NC2=O)c(-c2ccc(Br)cc2)n1 | active: 28.2 µM | 
COc1cc2c(cc1OC)[C@@H]1C(=O)c3ccc4c(c3OC1CO2)CC(C(C)C)O4 (stereo not given in full) |  | inactive: -28.4%
COc1ccc(/C=C2/C(=O)NC(=S)N(C3CC3)C2=O)cc1CN1C(=O)c2ccccc2C1=O | active: 14.1 µM | 
CN1C2CCC1/C(=C/c1ccccn1)C(=O)/C2=C\c1ccccn1 |  | inactive: -10.1%
O=c1[nH]c(=O)n(-c2cccc(Cl)c2)c(O)c1C=NCCCN1CCOCC1 |  | inactive: -20.9%
CCOC(=O)c1ccc(NC(=O)c2c(O)[nH]c(=O)[nH]c2=O)cc1 | active: 14.1 µM | 
Nc1c(C(=O)NCc2ccco2)c2nc3ccccc3nc2n1CCN1CCOCC1 | inconclusive: 28.2 µM [inhibitor, partial curve] | 
S=C(S)N1CCCC1 | active: 3.98 µM and active: 10 µM | 
CCOC(=O)c1c(N)n(CCCOC(=O)c2ccco2)c2nc3ccccc3nc12 | inconclusive: 28.2 µM [inhibitor, partial curve] | 
O=C(Cc1ccc(Br)cc1)N1CCN(Cc2ccccc2)CC1 | inconclusive: 39.8 µM [inhibitor, partial curve] | 
CCN(C(=O)CSc1ncccc1C(=O)Oc1cccc([N+](=O)[O-])c1)c1cccc(C)c1 | inconclusive: 12.6 µM [inhibitor, partial curve] | 
CC(C)NC(=O)Cn1cc(C(=O)c2ccccc2F)c2ccccc21 |  | inactive: -7.83%

SMILES | Potency | activity change, negative = inhibition
O=C(O)c1ccccc1-c1c2cc(Br)c(=O)cc-2oc2[c]([Hg])c(O)c(Br)cc12 | active: 2.24 µM | 
CN1C(=O)C(=Cc2ccccc2OCc2ccccc2Cl)C(=O)N(C)C1=O | active: 15.8 µM | 
Cc1noc(C(=O)Nc2sc3c(c2C#N)CCC3)c1Cl | active: 25.1 µM | 
CCCC(C)C1C(C#N)=C(N)Oc2c1c(=O)oc1ccccc21 (stereo not given) | inconclusive: 3.55 µM [inhibitor, full curve] | 
CC(C)CNC(=O)c1c(N)n(Cc2ccc3c(c2)OCO3)c2nc3ccccc3nc12 | inconclusive: 12.6 µM [inhibitor, partial curve] | 
Cc1nn(CCC#N)c2c1P(=S)(N1CCCC1)OC(c1ccc(F)cc1)=N2 (stereo not given) | active: 20 µM | 
Cc1cc(C(=O)N2CCC3(CC2)OCCO3)cs1 | inconclusive: 20 µM [inhibitor, partial curve, poor fit] | 
COC(=O)CSc1n[nH]c(=S)s1 | active: 39.8 µM | 
CCN1C[C@]2(COC(=O)c3ccccc3N3C(=O)C[C@H](C)C3=O)CC[C@H](OC)[C@@]34[C@@H]5C[C@H]6[C@H](OC)[C@H]5[C@](O)(C[C@@H]6OC)[C@@](O)([C@@H](OC)[C@@H]23)[C@@H]14 |  | inactive: -4.43%
CC1OC(=O)C(C(C)C)NC(=O)C(C(C)C)OC(=O)C(C(C)C)NC(=O)C(C)OC(=O)C(C(C)C)NC(=O)C(C(C)C)OC(=O)C(C(C)C)NC(=O)C(C)OC(=O)C(C(C)C)NC(=O)C(C(C)C)OC(=O)C(C(C)C)NC1=O (stereo not given) |  | inactive: -12%
O=[N+]([O-])c1ccccc1CCl |  | inactive: 1.88%
Cc1nn(-c2ccccc2)c2c1C(c1ccc(F)cc1F)C(C#N)=C(N)O2 (stereo not given) | active: 28.2 µM | 
CCOC(=O)c1c(/N=C/c2c(O)n(-c3ccccc3F)c(=S)[nH]c2=O)sc2c1CCCC2 | active: 22.4 µM | 
COc1c2c(c(CC=C(C)C)c3oc(=O)c(-c4ccc(O)cc4)c(O)c13)OC(C)(C)C=C2 |  | inactive: -17%
C=CCn1c(O)c(C(CC)=NC(C)c2ccccc2)c(=O)[nH]c1=O (stereo not given) |  | inactive: -15.4%
CCCCn1c(O)c(C(CC)=NCc2ccc3c(c2)OCO3)c(=O)[nH]c1=O |  | inactive: -3.62%
CNCCc1ccc(O)c(O)c1 | inconclusive: 4.47 µM [inhibitor, partial curve] | 
O=C1C=CC(=O)c2c(O)cccc21 | active: 14.1 µM | 
CC(C)CCn1c(=O)c(C(=O)Nc2ccccc2S(N)(=O)=O)c(O)c2ccccc21 | inconclusive: 35.5 µM [inhibitor, single point] | 
CNNC | inconclusive: 28.2 µM [inhibitor, partial curve, poor fit] | 
Cc1cccc2c1=NC(=O)/C(=C/c1c(O)[nH]c(=O)[nH]c1=O)C=2 | inconclusive: 39.8 µM [inhibitor, single point] | 
COP(=O)(OC)c1nc(-c2ccccc2)oc1NCc1ccccc1 | inconclusive: 28.2 µM [inhibitor, partial curve] | 

SMILES | Potency | activity change, negative = inhibition
CC1(C)CN=C(Nc2ccc(F)c(F)c2)S1 | active: 25.1 µM | 
CC(C)Sc1nnc([C@@H](N)Cc2ccccc2)o1 | inconclusive: 35.5 µM [inhibitor, partial curve] | 
CC1=NCCc2c1[nH]c1cc(O)ccc21 | inconclusive: 14.1 µM [inhibitor, partial curve] and inconclusive: 31.6 µM [inhibitor, partial curve] and inconclusive: 35.5 µM [inhibitor, partial curve] | 
Oc1ccc(Cl)cc1Sc1cc(Cl)ccc1O | active: 5.01 µM and active: 2.51 µM | 
Cc1[nH]c(=O)[nH]c(=O)c1/C=C/C(=O)OCC(C)C | inconclusive: 20 µM [inhibitor, partial curve, poor fit] | 
Fc1ccc(NC2=NCCS2)cc1Cl | active: 12.6 µM | 
O=C(COc1ccc2ccccc2c1)N1CCN(Cc2c[nH]c3ccccc23)CC1 |  | inactive: -2.62%
O=C(O)c1ccccc1O | inconclusive: 28.2 µM [inhibitor, partial curve] and inconclusive: 28.2 µM [inhibitor, partial curve, poor fit] and inconclusive: 31.6 µM [inhibitor, partial curve] | 
O=C(Nc1ccc(F)cc1)c1c(O)c2c(n(Cc3ccccc3)c1=O)CCCC2 | inconclusive: 25.1 µM [inhibitor, partial curve] | 
c1cc2c(cc1[C@H]1OC[C@@H]3[C@H]1CO[C@H]3c1ccc3c(c1)OCO3)OCO2 |  | inactive: -20.9%
COc1cc2c(cc1OC)-c1c(OC)c(OC)c(C=O)c3c1[C@H](C2)N(C)CC3 | inconclusive: 31.6 µM [inhibitor, partial curve] | 
O=c1[nH]c(=O)n(CCc2ccc(F)cc2)c(O)c1C=NCc1ccc2c(c1)OCO2 | inconclusive: 35.5 µM [inhibitor, single point] | 
c1cncc(CNc2cc(-c3ccc4c(c3)OCO4)ncn2)c1 | inconclusive: 12.6 µM [inhibitor, partial curve] | 
Cc1onc(-c2ccccc2Cl)c1C(=O)OCC(=O)c1ccc2c(c1)OCCO2 | inconclusive: 35.5 µM [inhibitor, partial curve] | 
N#CC(=Cc1ccc(O)c(O)c1)C(N)=S | active: 28.2 µM | 
Cc1ccc(N2C(=O)NC(=O)/C(=C/c3cnn(-c4ccc(C)cc4)c3)C2=O)cc1 | inconclusive: 15.8 µM [inhibitor, partial curve] | 
CCCCCC1C(=O)O[C@H](C)[C@@H](NC(=O)c2cccc(NC=O)c2O)C(=O)OC(C)C1OC(=O)CC(C)C (stereo not given in full) | inconclusive: 28.2 µM [inhibitor, single point] | 
Cn1cccc1/C=C1/C(=O)NC(=O)N(Cc2ccccc2)C1=O |  | inactive: -21.4%
CCOC(=O)c1ccc(N2C(=O)CC(N3CC=C(c4ccc(F)cc4)CC3)C2=O)cc1 (stereo not given) | active: 28.2 µM | 
ClC(Cl)(Cl)c1ccccc1 |  | inactive: -5.6% and inactive: -7.46%
COc1cc2c(cc1OC)-c1c(O)c(OC)cc3c1[C@H](C2)N(C)CC3 | inconclusive: 14.1 µM [inhibitor, full curve] | 
